The supplement of paper PMC6089552
In all, about 3,200 compounds went through this assay and about 300 (9.4%) showed activity. The entries are a selection whose mix differs from that of the whole data set.

Tested on: A673/TR/shEF
Assay: cell viability (LOESS-normalised, relative to median of negative controls) (log2 ratio); higher = more viable cells (less compound effect), active = hit call of the paper (over 3 MAD below the median)
Conditions: treatment time: 72 h
Procedure, shortened: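 Viability of A673/TR/shEF Ewing sarcoma cells was determined by CellTiter-Glo luminescence. The cells, at 1,500 per well in 384-well plates, were grown with or without doxycycline from 24 h before compound addition to switch on EWS-FLI1 shRNA knockdown, then exposed for three days to library compounds at two or more concentrations or to DMSO controls. Signals were LOESS-corrected plate by plate, normalised to the negative-control median and log2-transformed.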

[1] = 0.25 µM, library screen: screen2, EWS-FLI1 expression: high (no doxycycline)
[2] = 0.25 µM, library screen: screen2, EWS-FLI1 expression: low (doxycycline-induced shRNA knockdown)
[3] = 2.5 µM, library screen: screen2, EWS-FLI1 expression: high (no doxycycline)
[4] = 2.5 µM, library screen: screen2, EWS-FLI1 expression: low (doxycycline-induced shRNA knockdown)
[5] = 0.25 µM, library screen: screen1, EWS-FLI1 expression: high (no doxycycline)
[6] = 0.25 µM, library screen: screen1, EWS-FLI1 expression: low (doxycycline-induced shRNA knockdown)
[7] = 2.5 µM, library screen: screen1, EWS-FLI1 expression: high (no doxycycline)
[8] = 2.5 µM, library screen: screen1, EWS-FLI1 expression: low (doxycycline-induced shRNA knockdown)
[9] = 0.103 µM, library screen: screen3, EWS-FLI1 expression: high (no doxycycline)
[10] = 0.103 µM, library screen: screen3, EWS-FLI1 expression: low (doxycycline-induced shRNA knockdown)
[11] = 0.308 µM, library screen: screen3, EWS-FLI1 expression: high (no doxycycline)
[12] = 0.308 µM, library screen: screen3, EWS-FLI1 expression: low (doxycycline-induced shRNA knockdown)
[13] = 0.926 µM, library screen: screen3, EWS-FLI1 expression: high (no doxycycline)
[14] = 0.926 µM, library screen: screen3, EWS-FLI1 expression: low (doxycycline-induced shRNA knockdown)
[15] = 2.8 µM, library screen: screen3, EWS-FLI1 expression: high (no doxycycline)
[16] = 2.8 µM, library screen: screen3, EWS-FLI1 expression: low (doxycycline-induced shRNA knockdown)
[17] = 8.3 µM, library screen: screen3, EWS-FLI1 expression: high (no doxycycline)
[18] = 8.3 µM, library screen: screen3, EWS-FLI1 expression: low (doxycycline-induced shRNA knockdown)
[19] = 25 µM, library screen: screen3, EWS-FLI1 expression: high (no doxycycline)
[20] = 25 µM, library screen: screen3, EWS-FLI1 expression: low (doxycycline-induced shRNA knockdown)

Measured: cell viability (log2)

NC1(C(=O)O)CCc2cc(C(=O)O)ccc21 (stereo not given)
inactive: [2] 0.0469 | [3] 0.0221 | [4] 0.107
active: [1] -0.364

COc1ccc(C(C)C(=O)c2ccc(O)cc2O)cc1 (stereo not given)
inactive: [5] 0.0783 | [6] 0.0339 | [7] 0.16 | [8] 0.123

CN1CCC(OC(c2ccccc2)c2ccccc2)CC1
inactive: [5] 0.0868 | [6] 0.234 | [7] 0.195 | [8] 0.162

CCC/C=C/C=C/C1CC(O)C(O)C(=O)C1C=O (stereo not given)
inactive: [5] -0.0508 | [6] 0.0579 | [7] 0.0447 | [8] 0.105

COc1ccc(/C=C/C(=O)O)cc1O
inactive: [5] 0.0659 | [6] -0.0174 | [7] 0.0725 | [8] 0.0415

Nc1ccc2c3c(cccc13)C(=O)NC2=O
inactive: [2] 0.0582 | [3] 0.0677 | [4] 0.123
active: [1] -0.219

Cn1cc(-c2ccc3nnc(Sc4ccc5ncccc5c4)n3n2)cn1
inactive: [9] -0.0487 | [10] -0.0471 | [11] -0.0137 | [12] -0.0296 | [13] -0.0417 | [14] -0.0286 | [15] 0.0315 | [16] 0.0177 | [17] 0.0194 | [18] 0.0197 | [19] -0.0534 | [20] 0.0875

C=C[C@H]1CN2CCC1C[C@H]2[C@H](O)c1ccnc2ccc(OC)cc12 (stereo not given in full)
inactive: [9] 0.117 | [10] 0.0419 | [5] 0.0979 | [6] 0.0787 | [1] 0.301 | [2] 0.087 | [11] 0.0713 | [12] 0.119 | [13] 0.167 | [14] 0.0735 | [7] 0.173 | [8] 0.123 | [3] 0.178 | [4] 0.0152 | [15] 0.0946 | [16] 0.0541 | [17] 0.0987 | [18] 0.0369 | [19] 0.0679 | [20] 0.137

Clc1ccc(Nc2nnc(Cc3ccncc3)c3ccccc23)cc1
inactive: [9] 0.0957 | [10] 0.075 | [11] 0.106 | [12] 0.0929 | [13] 0.0501 | [14] 0.104 | [15] 0.103 | [16] 0.0818 | [17] 0.192 | [18] 0.107 | [19] 0.126 | [20] 0.0443

Cc1cc(O)c2c(c1)C(=O)c1cc(O)cc(O)c1C2=O
inactive: 0.025 µM, library screen: screen2, EWS-FLI1 expression: high (no doxycycline) 0.128 | 0.025 µM, library screen: screen2, EWS-FLI1 expression: low (doxycycline-induced shRNA knockdown) 0.0464 | [5] 0.0461 | [6] -0.0946 | [1] 0.148 | [2] 0.0491 | [7] 0.101 | [8] -0.0427 | [3] 0.1 | [4] 0.0836 | 25 µM, library screen: screen2, EWS-FLI1 expression: high (no doxycycline) 0.0169 | 25 µM, library screen: screen2, EWS-FLI1 expression: low (doxycycline-induced shRNA knockdown) -0.017
